Data as given in US6268347A, “Prosaposin-derived peptides” (Regents of the University of CA, priority 1999, dated 2001).
“Also recorded” adds a separate entry of the source. At least one peptide structure holds a part that was inferred or is arguable (an end, a ring closure or a residue). Some entries repeat one wording, which the source may state once for all of them. Where a SMILES comes first, the peptide text is derived from it. [ ]: non-standard residue; d: D form.

What was measured:
[1] = test system: neuroblastoma cells; conditions: cited from earlier work
[2] = test system: neurite outgrowth; conditions: cited from earlier work
[3] = test system: choline acetyltransferase activity; conditions: cited from earlier work
[4] = Neurotrophic activity of peptides
[5] = test system: Chung model rats; assay: Tactile allodynia (von Frey 50% paw withdrawal threshold) in Chung model rats; type: in vivo, rat; conditions: for activity in alleviating neuropathic pain / reducing allodynia: dose not stated at the place
Procedure: The surgical procedure previously described by Kim and Chung, supra, 1992, was performed on male Sprague-Dawley rats weighing 120 to 150 grams to induce an allodynic state. Briefly, the rats were anesthetized with halothane; subsequently, the left L-5 and L-6 spinal nerves were isolated adjacent to the vertebral column and ligated with 6.0 silk suture distal to the dorsal root ganglion. After a ten to fourteen day post operative recovery period, a spinal catheter was introduced. Five days following the second surgery, intrathecal drug administration was accomplished using a gear driven micro-injection syringe connected to a spinal catheter inserted through the foramen magnum. Prior to testing, the rats were placed in clear plastic wire meshed cages and allowed to accommodate.
To assess the 50% mechanical threshold for paw withdrawal, a von Frey hair was applied to the hind foot avoiding the foot pad. Each of the von Frey hairs, which are calibrated to bend at increasing log forces, were pressed perpendicularly to the foot with sufficient force to cause slight bending for a duration of approximately six to eight seconds. A positive response was noted if the foot was sharply withdrawn. Six data points were collected for each point with the maximum and minimum stimulus noted for each time point. The resulting pattern of the responses was tabulated, and the 50% response threshold was computed. The graph gives the response to the indicated dosage of peptide given as a single intrathecal bolus injection. The X-axis indicates the time after the injection at which point the hypersensitivity to pressure on the foot pad was measured.

## CC[C@H](C)[C@H](NC(=O)[C@H](CCC(=O)O)NC(=O)[C@H](CCCCN)NC(=O)[C@H](CCC(=O)O)NC(=O)[C@@H](NC(=O)[C@H](CCCCN)NC(=O)[C@H](CC(N)=O)NC(=O)[C@H](CC(N)=O)NC(=O)[C@H](CC(=O)O)NC(=O)[C@@H](NC(=O)[C@H](CC(C)C)NC(=O)[C@H](CCCCN)NC(=O)[C@@H](NC(=O)[C@@H](NC(=O)[C@H](CCC(=O)O)NC(=O)[C@H](CCCCN)NC(=O)[C@@H](NC(=O)[C@H](CC(C)C)NC(=O)[C@H](Cc1ccccc1)NC(=O)[C@H](CCC(=O)O)NC(=O)[C@@H](N)CS)C(C)C)C(C)C)[C@@H](C)O)[C@@H](C)CC)[C@@H](C)O)C(=O)N[C@@H](CC(C)C)C(=O)O [SEQ ID NO: 1] (H-CEFLVKEVTKLIDNNKTEKEIL-OH)
[1]
  cell death in neuroblastoma cells: prevents cell death
[2]
  neurite outgrowth: stimulates neurite outgrowth
[3]
  choline acetyltransferase activity: stimulates
[4]
  neurotrophic activity: have neurotrophic
[5]; 0.007 μg, single intrathecal bolus injection
  reduction in allodynia: no significant reduction in allodynia
[5]; 0.7 or 0.07 μg, single intrathecal bolus injection
  suppression of allodynia (force threshold): suppressed allodynia in a dose-dependent fashion
[5]; highest dose, 180 minutes after injection
  allodynia at latest time point assayed: significantly reduced allodynia
[5]; intrathecal bolus injection
  time after injection by which effect was observed: ≤ 15 min
  time for which effect was sustained following administration: 3 h
  time of maximum (peak) effect post-injection: 120 min
  activity in alleviating neuropathic pain / reducing allodynia: reduces the painful allodynia
[5]; intrathecal bolus injection, listed as SEQ. ID NO: 1
  activity in alleviating neuropathic pain / reducing allodynia: neuropathic pain was alleviated

## CC[C@H](C)[C@H](NC(=O)[C@H](CCC(=O)O)NC(=O)[C@H](CCC(=O)O)NC(=O)[C@@H](NC(=O)[C@H](C)NC(=O)[C@H](CC(N)=O)NC(=O)[C@H](CC(N)=O)NC(=O)[C@H](CC(=O)O)NC(=O)[C@@H](NC(=O)[C@H](CC(C)C)NC(=O)[C@@H](C)NC(=O)[C@@H](N)[C@@H](C)O)[C@@H](C)CC)[C@@H](C)O)C(=O)N[C@@H](CC(C)C)C(=O)N[C@@H](Cc1ccc(O)cc1)C(=O)O [SEQ ID NO: 2, TXLIDNNATEEILY] (H-T[dA]LIDNNATEEILY-OH)
[4]
  neurotrophic activity: have neurotrophic
[5]; intrathecal bolus injection
  time by which threshold returned to pre-injection value: ≤ 60 min
  activity in alleviating neuropathic pain / reducing allodynia: effective in reducing allodynia; also recorded: reduces the painful allodynia

## CC[C@H](C)[C@H](NC(=O)[C@H](CCC(=O)O)NC(=O)[C@H](CCCCN)NC(=O)[C@H](CCC(=O)O)NC(=O)[C@@H](NC(=O)[C@H](CCCCN)NC(=O)[C@H](CC(N)=O)NC(=O)[C@H](CC(N)=O)NC(=O)[C@H](CC(=O)O)NC(=O)[C@@H](NC(=O)[C@@H](N)CC(C)C)[C@@H](C)CC)[C@@H](C)O)C(=O)N[C@@H](CC(C)C)C(=O)O [SEQ ID NO: 3, LIDNNKTEKEIL] (H-LIDNNKTEKEIL-OH)
[4]
  neurotrophic activity: active as a neurotrophic factor

## CC[C@H](C)[C@H](NC(=O)[C@H](CCC(=O)O)NC(=O)[C@H](CCCCN)NC(=O)[C@H](CCC(=O)O)NC(=O)[C@@H](NC(=O)[C@H](CCCCN)NC(=O)[C@H](CC(N)=O)NC(=O)[C@H](CC(=O)O)NC(=O)[C@H](CC(=O)O)NC(=O)[C@@H](NC(=O)[C@H](CC(C)C)NC(=O)[C@H](CCCCN)NC(=O)[C@@H](NC(=O)[C@@H](NC(=O)[C@H](CCC(=O)O)NC(=O)[C@H](CCCCN)NC(=O)[C@@H](NC(=O)[C@H](CC(C)C)NC(=O)[C@H](Cc1ccccc1)NC(=O)[C@H](CCC(=O)O)NC(=O)[C@@H](N)CS)C(C)C)C(C)C)[C@@H](C)O)[C@@H](C)CC)[C@@H](C)O)C(=O)N[C@@H](CC(C)C)C(=O)O [SEQ ID NO: 8] (H-CEFLVKEVTKLIDDNKTEKEIL-OH)
[4]
  neurotrophic activity: lacks neurotrophic activity
[5]; 17.5 μg injected
  change in allodynic response: No change in the allodynic response
[5]; intrathecal bolus injection
  activity in alleviating neuropathic pain / reducing allodynia: inactive in alleviating neuropathic pain; also recorded: lacks activity in alleviating neuropathic pain

## CC[C@H](C)[C@H](NC(=O)[C@H](CCC(=O)O)NC(=O)[C@H](CCCCN)NC(=O)[C@H](CCC(=O)O)NC(=O)[C@@H](NC(=O)[C@H](CCCCN)NC(=O)[C@H](CC(=O)O)NC(=O)[C@H](CC(N)=O)NC(=O)[C@H](CC(=O)O)NC(=O)[C@@H](NC(=O)[C@H](CC(C)C)NC(=O)[C@H](CCCCN)NC(=O)[C@@H](N)[C@@H](C)O)[C@@H](C)CC)[C@@H](C)O)C(=O)N[C@@H](CC(C)C)C(=O)O [SEQ ID NO: 9, TKLIDNDKTEKEIL] (H-TKLIDNDKTEKEIL-OH)
[4]
  neurotrophic activity: lacks neurotrophic activity

## CC[C@H](C)[C@H](NC(=O)[C@H](CCC(=O)O)NC(=O)[C@H](CCCCN)NC(=O)[C@H](CCC(=O)O)NC(=O)[C@@H](NC(=O)[C@H](CCCCN)NC(=O)[C@H](CC(N)=O)NC(=O)[C@H](CC(N)=O)NC(=O)[C@H](CC(=O)O)NC(=O)[C@@H](NC(=O)[C@H](CO)NC(=O)[C@H](CCCCN)NC(=O)[C@@H](N)[C@@H](C)O)[C@@H](C)CC)[C@@H](C)O)C(=O)N[C@@H](CC(C)C)C(=O)O [SEQ ID NO: 10, TKSIDNNKTEKEIL] (H-TKSIDNNKTEKEIL-OH)
[4]
  neurotrophic activity: lacks neurotrophic activity
